# Experimental data reported in PubChem BioAssay (NCATS).
# This list was built around the results that the source calls inconclusive (neither active nor inactive); the mix of calls is not that of the screen. For part of these data: A potency beside an inconclusive call is a rough fit, not a confirmed value. Activity calls are given as the source filed them. Unless noted, the call rests on the fitted dose curve; in most records, active means well fitted curve in the direction sought with a large enough effect; inconclusive means small, poorly fitted or top-dose-only effect, or another doubt; inactive means no such curve, though single readings can be large; an effect the other way counts as inactive or inconclusive.
# Key:
# [1] = Primary qHTS for inhibitors of nuclear receptor binding SET domain protein 2 (NSD2) in an RCH-ACV wild type WT cells (2C) (AID 1645877); conditions: activity change, negative = cell killing: at 44.9 µM (top of the series) unless noted; further: nearly all actives have a fitted effect of over 70% in size; further: potency means the concentration at half of the fitted maximal effect; on activity change, negative = cell killing: on the % scale 0 is the no-effect control and ±100 the full control effect
# [2] = test system: HEK293; test: Cytotoxic Profiling of Annotated Libraries Using Quantitative High-Throughput Screening (AID 1296008); conditions: Five cell lines viability, CellTiter-Glo ATP luminescence, 48-72 h; max response: stronger effect = lower value; further: nearly all actives have a fitted effect of over 60% in size; further: potency means the concentration at half of the fitted maximal effect; on max response: on the % scale 0 is the no-effect control and ±100 the full control effect
# Method in brief: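 Compounds were pin-transferred onto cells and incubated 48 or 72 hr at 37 degree Celsius, 95% humidity. CellTiter-Glo was added, plates sat 10 min at room temperature, then ATP-coupled luminescence was imaged as the viability read-out.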
# [3] = test system: Hek293T; test: Primary qHTS to identify gynecologic anti-cancer compounds using libraries of approved drugs and bioactive compounds (AID 1345084); conditions: Gynecologic cancer cell panel viability, ATPlite luminescence, 48 h, control line for the selectivity index; activity change, negative = cytotoxicity: at 57.5 µM (top of the series) unless noted; further: nearly all actives have a fitted effect of over 55% in size; further: potency means the concentration at half of the fitted maximal effect; on activity change, negative = cytotoxicity: on the % scale 0 is the no-effect control and ±100 the full control effect
# Method in brief: (§1)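 In this quantitative HTS, cell killing is estimated from loss of ATP-dependent luciferase light. Cells see five compound concentrations over a 48 h exposure.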
# [4] = test system: OV90; test: as above; conditions: Gynecologic cancer cell panel viability, ATPlite luminescence, 48 h; series mostly up to 57.5 µM
# Method in brief: as §1
# [5] = test system: PA-1; test: as above; conditions: Gynecologic cancer cell panel viability, ATPlite luminescence, 48 h; series mostly up to 57.5 µM
# Method in brief: as §1
# [6] = test system: SKOV3; test: as above; conditions: Gynecologic cancer cell panel viability, ATPlite luminescence, 48 h; series mostly up to 57.5 µM
# Method in brief: as §1
# [7] = test system: Zika virus NS2B-NS3 protease (unlinked complex); test: Primary screen GU Rhodamine qHTS for Zika virus inhibitors: Unlinked NS2B-NS3 protease assay (AID 1347159); further: potency means the concentration at half of the fitted maximal effect; nearly all actives have a fitted effect of over 60% in size
# Method in brief: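 Noncovalent NS2B hydrophilic domain–NS3 protease domain complex (25 nM) preincubated 15 min at room temperature with compounds (up to 114 microM) in 10 mM Tris-HCl pH 8.0, 0.01% Tween 20; 1.5 microM Rhodamine110 substrate added, fluorescence change over 15 min fitted to Hill equation.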
# [8] = Primary qHTS for inhibitors of nuclear receptor binding SET domain protein 2 (NSD2) in an isogenic RCH-ACV NSD2 p.E1099K mutant (9B) (AID 1645876); further: potency means the concentration at half of the fitted maximal effect; nearly all actives have a fitted effect of over 70% in size
# [9] = test system: JEG-3; test: Primary qHTS to identify gynecologic anti-cancer compounds using libraries of approved drugs and bioactive compounds (AID 1345084); conditions: Gynecologic cancer cell panel viability, ATPlite luminescence, 48 h; series mostly up to 57.5 µM; further: nearly all actives have a fitted effect of over 55% in size; further: potency means the concentration at half of the fitted maximal effect; on activity change, negative = cytotoxicity: on the % scale 0 is the no-effect control and ±100 the full control effect
# Method in brief: as §1
# [10] = P-glycoprotein substrates identified in KB-8-5-11 adenocarcinoma cell line, qHTS therapeutic library screen (AID 1346987); further: nearly all actives have a fitted effect of over 65% in size; further: potency means the concentration at half of the fitted maximal effect
# Method in brief: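 KB-8-5-11, a colchicine-selected P-gp-overexpressing KB-3-1 subline, was grown without colchicine for the assay. Cells were seeded at 500 cells/well, dosed in concentration-response and incubated 72 h at 37 degree C, 5% CO2. Viability was read by CellTiter-Glo luminescence.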
# [11] = molecular target: Cytochrome P450 2C9 (Homo sapiens) (UniProt P11712); test: Cytochrome P450 family 2 subfamily C member 9 (CYP2C9) small molecule antagonists: luciferase biochemical (cell-free) qHTS assay (AID 1645842; active means well fitted curve in the direction sought with a large enough effect in the repeat runs; inconclusive means weak or mixed curves; inactive means no such curve, though single readings can be large; an effect the other way counts as inactive or inconclusive; further: on the % scale 0 is the no-effect control and ±100 the full control effect; nearly all actives have a fitted effect of over 55% in size)
# Method in brief: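 Luminescence, after 20 min with luciferin detection reagent, reflected CYP2C9 turnover during a 1 h NADPH-driven reaction at 37C. Enzyme-substrate mix contained 0.4% bovine serum albumin and was preincubated with compound 10 min at room temperature.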
# [12] = molecular target: Phospholipid hydroperoxide glutathione peroxidase GPX4 (Homo sapiens) (UniProt P36969); test: Primary qHTS Assay for Inhibitors of Recombinant Selenoprotein Glutathione Peroxidase 4 (GPX4) (AID 1845192); further: potency means the concentration at half of the fitted maximal effect; nearly all actives have a fitted effect of over 65% in size
# Method in brief: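 GR-coupled readout: 100 nM GR, 1 mM GSH, 0.5 mM NADPH; NADPH fluorescence (ex 340/em 450 nm) read at t=0 and after 15 min RT. GPX4 200 nM, preincubated 30 min with compound; substrate 0.5 mM CHP.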
# [13] = Primary redox qHTS assay for identification of artifact compounds. (AID 1845223); conditions: Amplex Red/HRP redox cycling with DTT, fluorescence; redox activity (% of DA3003): at 53.8 µM (top of the series);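 further: 0% = DMSO and 100% = reference compound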
# Method in brief: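 Amplex Red (25 uM) and HRP (250 mU/mL) in HBSS, with compounds for 15 min, then 250 uM DTT for 30 min, room temperature, dark. Fluorescence 525/598 nm read; normalized to DMSO and 10 uM DA3003; Hill fit.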
# [14] = molecular target: Cytochrome P450 2D6 (Homo sapiens) (UniProt P10635); test: Cytochrome P450 family 2 subfamily D member 6 (CYP2D6) small molecule antagonists: luciferase biochemical (cell-free) qHTS assay (AID 1645840; active means well fitted curve in the direction sought with a large enough effect in the repeat runs; inconclusive means weak or mixed curves; inactive means no such curve, though single readings can be large; an effect the other way counts as inactive or inconclusive; further: potency means the concentration at half of the fitted maximal effect; nearly all actives have a fitted effect of over 55% in size)
# Method in brief: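 P450-Glo luminescent screen: recombinant CYP2D6 enzyme–proluciferin substrate mix preincubated with compound 10 min at room temperature, then NADPH regeneration added for 1 h at room temperature. Detection reagent added for 20 min; luciferin light read as relative luminescence units.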
# [15] = molecular target: Luciferin 4-monooxygenase (Photinus pyralis) (UniProt P08659); test: Primary firefly luciferase (FLuc) qHTS assay for identification of artifact compounds. (AID 1845220); further: potency means the concentration at half of the fitted maximal effect; nearly all actives have a fitted effect of over 60% in size
# Method in brief: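 qHTS, 15 min compound preincubation with substrate (10 uM luciferin, 10 uM ATP) at RT, then 10 nM FLuc; 5 min; luminescence; % inhibition vs no-enzyme/DMSO controls, 4-parameter Hill fit.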
# [16] = Primary fluorescence-based thiol-reactive (MSTI) qHTS assay for identification of artifact compounds. (AID 1845221);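 further: potency means the concentration at half of the fitted maximal effect; thiol-reactive compounds lower the probe fluorescence signal; nearly all actives have a fitted effect of over 65% in size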
# Method in brief: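 One-hour, room-temperature, dark incubation of compound with 4 uM MSTI in PBS (pH 7.4, 2% DMSO) precedes a fluorescence read at 525 nm excitation, 598 nm emission; Hill-equation fitting yields concentration-response values.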
# [17] = test system: Zika virus NS2B-NS3 protease (linked construct); test: Primary screen NINDS Rhodamine qHTS for Zika virus inhibitors (AID 1347160); conditions: activity change, negative = inhibition: at 57.1 µM (top of the series) unless noted
# Method in brief: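 Purified linked NS2B-NS3 protease (NS2B hydrophilic domain joined to NS3 protease by flexible linker), 25 nM in 10 mM Tris-HCl pH 8.0, 0.01% Tween 20. Compounds titrated, 15 min preincubation at room temperature; 1.5 microM Rhodamine110 substrate, FITC fluorescence change over 15 min.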
# [18] = qHTS of pediatric cancer cell lines to identify multiple opportunities for drug repurposing: Primary screen for DAOY cells (AID 1347090); conditions: DAOY medulloblastoma viability, CellTiter-Glo luminescence, 48 h; activity change, negative = cytotoxic: at 46 µM (top of the series)
# Method in brief: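 Eight- or eleven-point concentration series, 48 h treatment at 37 degrees C in growth media; readout CellTiter-Glo luminescence. Potency and efficacy were taken from the concentration-response curves.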
# [19] = qHTS of pediatric cancer cell lines to identify multiple opportunities for drug repurposing: Primary screen for SK-N-SH cells (AID 1347098);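 further: DMSO served as neutral control and bortezomib at 2.3 µM as positive control; on the % scale 0 is the no-effect control and ±100 the full control effect; nearly all actives have a fitted effect of over 65% in size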
# Method in brief: (§2)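 Cells (500-1,000/well) rested 5 h, then received compounds for 48 h; metabolically active cells were measured by CellTiter-Glo luminescence. Final concentrations spanned up to 46 µM (MIPE, 11-point) or 0.59 nM-46 µM (NPC, 8-point) in primary screens, 11-point in follow-ups.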
# [20] = qHTS of pediatric cancer cell lines to identify multiple opportunities for drug repurposing: Primary screen for OHS-50 cells (AID 1347103);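 further: plate controls were DMSO neutral control for no effect and bortezomib positive control for full effect; nearly all actives have a fitted effect of over 40% in size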
# Method in brief: as §2
# [21] = Primary qHTS for small molecule stabilizers of the endoplasmic reticulum resident proteome: Secreted ER Calcium Modulated Protein (SERCaMP) assay (AID 1508630); conditions: SH-SY5Y GLuc-SERCaMP (Gaussia luciferase released on ER calcium loss) secretion, thapsigargin, luminescence; activity change, negative = inhibition: at 38.4 µM (top of the series) unless noted; further: potency means the concentration at half of the fitted maximal effect
# Method in brief: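 GLuc-SERCaMP-expressing SH-SY5Y cells, pretreated 16 h with compound, are challenged with thapsigargin to empty ER calcium stores; after 4 h, coelenterazine is added directly to the medium and luminescence is imaged.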
# [22] = test system: Nanoluciferase (engineered Oplophorus gracilirostris luciferase); test: Primary Nanoluciferase (NLuc) qHTS assay for identification of artifact compounds. (AID 1845222);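 further: 0% = DMSO and -100% = no enzyme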
# Method in brief: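 Luminescence read-out of secreted NLuc in S16 cell conditioned medium (1:55); compounds tested with 15 min RT preincubation, then Nano-Glo substrate 1:100, 5 min. % inhibition vs no-enzyme and DMSO controls, 4-parameter Hill fit.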
# [23] = Drug repurposing screens with cells derived from glioblastoma tumor samples (AID 1345199); conditions: GBM patient neurospheres viability, ATP luminescence, 48 h; Potency: tumour line A unless noted; activity, negative = cell killing: at 46 µM (top of the series), tumour line A unless noted; further: potency means the concentration at half of the fitted maximal effect; nearly all actives have a fitted effect of over 40% in size
# Method in brief: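 Four patient lines of CD133+ GBM neurospheres were screened at several concentrations; hits were retested in those lines plus three slower-growing GBM lines, using 48-hour treatment and ATP-based viability.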
# [24] = qHTS to identify inhibitors of the type 1 interferon - major histocompatibility complex class I in skeletal muscle: primary screen against the NCATS Mechanism Interrogation Plate v5.0 (MIPE) Libary (AID 1347411); conditions: iHSKM cells + IFN-b, HiBiT-tagged MHC-I luminescence, 24 h; activity change, negative = inhibition: at 45.8 µM (top of the series)
# Method in brief: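 Immortalized human myoblasts (C25cl48) with HiBit knocked into endogenous HLA-B*08:01 were stimulated with 4 ng/ml IFN-beta and given compounds in 11-point 1:3 titration from 46 uM. After 24 h at 37 C, lytic HiBiT luminescence was read.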
# Tags describe the fitted curve by direction and shape.
# Chain of UniProt P36969 (P36969 whole entry, looked up): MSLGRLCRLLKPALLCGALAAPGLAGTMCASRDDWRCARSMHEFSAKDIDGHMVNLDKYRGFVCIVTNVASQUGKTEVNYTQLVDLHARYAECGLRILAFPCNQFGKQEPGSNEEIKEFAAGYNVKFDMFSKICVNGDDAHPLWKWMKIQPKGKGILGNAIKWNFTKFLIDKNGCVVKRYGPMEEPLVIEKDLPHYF
# Chain of UniProt P10635 (P10635 whole entry, looked up): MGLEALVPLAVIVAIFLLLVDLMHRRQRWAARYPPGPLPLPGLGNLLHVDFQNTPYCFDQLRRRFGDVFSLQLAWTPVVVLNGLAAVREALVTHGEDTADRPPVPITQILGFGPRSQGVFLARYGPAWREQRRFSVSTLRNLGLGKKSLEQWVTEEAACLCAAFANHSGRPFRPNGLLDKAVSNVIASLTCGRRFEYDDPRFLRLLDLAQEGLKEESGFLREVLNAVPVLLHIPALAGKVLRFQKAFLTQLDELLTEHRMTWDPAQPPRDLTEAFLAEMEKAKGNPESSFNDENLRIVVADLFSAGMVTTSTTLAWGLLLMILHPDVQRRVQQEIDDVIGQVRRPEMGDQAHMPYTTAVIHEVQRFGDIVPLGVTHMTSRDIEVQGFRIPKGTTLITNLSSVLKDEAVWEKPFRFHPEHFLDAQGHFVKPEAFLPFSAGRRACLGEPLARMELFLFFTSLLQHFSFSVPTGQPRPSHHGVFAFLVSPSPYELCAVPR
# Chain of UniProt P11712 (P11712 whole entry, looked up): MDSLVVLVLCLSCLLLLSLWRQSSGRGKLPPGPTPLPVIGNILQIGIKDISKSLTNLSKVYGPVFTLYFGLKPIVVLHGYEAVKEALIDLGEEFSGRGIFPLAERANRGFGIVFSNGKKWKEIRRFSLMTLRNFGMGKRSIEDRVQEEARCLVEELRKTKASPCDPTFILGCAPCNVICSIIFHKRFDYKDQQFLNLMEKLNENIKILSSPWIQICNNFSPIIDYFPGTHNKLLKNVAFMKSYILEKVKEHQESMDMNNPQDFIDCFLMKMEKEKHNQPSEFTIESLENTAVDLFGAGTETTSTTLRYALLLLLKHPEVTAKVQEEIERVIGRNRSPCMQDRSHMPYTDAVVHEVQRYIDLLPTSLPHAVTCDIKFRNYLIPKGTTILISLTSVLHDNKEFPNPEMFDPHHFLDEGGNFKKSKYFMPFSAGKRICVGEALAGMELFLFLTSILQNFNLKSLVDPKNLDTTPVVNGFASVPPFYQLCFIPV
compound,measurement,setting,value
C=C(C(=O)O)C1CC(O)C2(C)CCCC(=C)C2C1 (stereo not given),Potency,[1],"inconclusive: 16.3 µM [inhibitor, single point]"
same,max response,[2],inactive: 0.173%
same,Potency,[3],inactive
COc1cc(/C=N\NC(=O)c2ccc3c(c2)OCO3)ccc1OCc1ccccc1,Potency,[1],inactive
same,Potency,[2],"inconclusive: 29.1 µM [inhibitor, single point]"
same,Potency,[4],"inconclusive: 20 µM [cytotoxic, partial curve, poor fit]"
same,Potency,[5],"inconclusive: 11.2 µM [cytotoxic, partial curve]"
same,Potency,[6],"inconclusive: 25.1 µM [cytotoxic, partial curve, poor fit]"
COc1cc(C(=O)NC(=S)Nc2cccc(NC(=O)c3ccccc3)c2)cc(OC)c1OC,Potency,[7],"inconclusive: 100 µM [inhibitor, single point]"
same,Potency,[8],"inconclusive: 12.9 µM [inhibitor, partial curve]"
same,Potency,[1],"inconclusive: 9.16 µM [inhibitor, partial curve]"
same,Potency,[2],"inconclusive: 25.9 µM [inhibitor, single point]"
same,Potency,[9],inactive
same,Potency,[6],inactive
O=C(NCC(=O)N1CCCC1)Nc1ccc2cnccc2c1,Potency,[10],inactive
same,Potency,[11],inactive
same,Potency,[8],"inconclusive: 29.5 µM [inhibitor, partial curve, poor fit]"
same,Potency,[1],"inconclusive: 20.9 µM [inhibitor, single point]"
same,Potency,[12],"inconclusive: 25.5 µM [inhibitor, partial curve, poor fit]"
same,Potency,[13],inactive
same,Potency,[2],"inconclusive: 14.6 µM [inhibitor, partial curve, poor fit]"
same,Potency,[9],inactive
CC(C)(O)c1ccc2c(c1)ncn2-c1cccc(-c2ccccc2C#N)c1,Potency,[10],"inconclusive: 20.6 µM [inhibitor, single point]"
same,Potency,[14],"inconclusive: 30.1 µM [inhibitor, single point]"
same,Potency,[8],"inconclusive: 29 µM [inhibitor, single point]"
same,Potency,[1],"inconclusive: 20.5 µM [inhibitor, single point]"
same,Potency,[2],"inconclusive: 29.1 µM [inhibitor, single point]"
same,Potency,[9],inactive
same,Potency,[6],"inconclusive: 15.8 µM [cytotoxic, single point]"
C=C1C(=O)OC2CC(C)C(CCC(C)O)=CCC12 (stereo not given),Potency,[7],"inconclusive: 28.2 µM [inhibitor, partial curve, poor fit]"
same,Potency,[8],"inconclusive: 29 µM [inhibitor, single point]"
same,Potency,[15],active: 6.75 µM
same,Potency,[16],"inconclusive: 23.8 µM [inhibitor, partial curve]"
same,Potency,[2],"inconclusive: 16.4 µM [inhibitor, single point]"
same,Potency,[9],"inconclusive: 35.5 µM [cytotoxic, single point]"
same,Potency,[4],inactive
same,Potency,[6],"inconclusive: 12.6 µM [cytotoxic, partial curve, poor fit]"
CC(=O)O[C@@H]1CC[C@@]2(C)C(CC[C@]3(C)C2[C@H](O)C=C2[C@H]4[C@@H](C)[C@H](C)CC[C@]4(C)CC[C@]23C)[C@@]1(C)C(=O)O (stereo not given in full),Potency,[7],active: 7.08 µM
same,Potency,[17],active: 11.2 µM
same,Potency,[2],"inconclusive: 14.2 µM [inhibitor, single point]"
same,Potency,[4],inactive
same,Potency,[5],inactive
same,Potency,[6],inactive
C=CCc1cc(OC)c(OC(C)C(O)c2ccc(O)c(OC)c2)c(OC)c1 (stereo not given),Potency,[10],inactive
same,Potency,[7],"inconclusive: 31.6 µM [inhibitor, partial curve, poor fit]"
same,Potency,[16],"inconclusive: 18.5 µM [inhibitor, single point]"
same,max response,[2],inactive: 0.874%
same,Potency,[4],inactive
same,Potency,[5],inactive
CCc1cc(S(=O)(=O)O)c2cc(C(C)C)cccc1-2,Potency,[18],inactive
same,Potency,[19],inactive
same,Potency,[20],inactive
same,Potency,[7],"inconclusive: 14.1 µM [inhibitor, single point]"
same,Potency,[17],"inconclusive: 20 µM [inhibitor, partial curve]"
same,Potency,[21],"inconclusive: 1 µM [inhibitor, full curve]"
same,Potency,[8],"inconclusive: 33.5 µM [inhibitor, single point]"
same,Potency,[1],"inconclusive: 21.1 µM [inhibitor, single point]"
same,Potency,[22],inactive
same,max response,[2],inactive: -0.992%
same,Potency,[9],inactive
same,Potency,[4],inactive
same,Potency,[6],inactive
same,Potency,[23],"inconclusive: 158 nM [inhibitor, full curve, poor fit]"
CC(C)c1ccc2c(c1)C(O)CC1C(C)(CO)CCCC21C (stereo not given),Potency,[10],inactive
same,Potency,[17],"inconclusive: 31.6 µM [inhibitor, single point]"
same,max response,[2],inactive: -7.86%
same,Potency,[9],inactive
same,Potency,[6],"inconclusive: 20 µM [rising, single point]"
N#Cc1ccc(COC[C@H]2O[C@@H](n3c(NCc4ccc(Cl)c(Cl)c4)nc4c(N)ncnc43)[C@H](O)[C@@H]2O)cc1,Potency,[10],inactive
same,Potency,[24],"inconclusive: 37 µM [inhibitor, single point]"
same,Potency,[8],"inconclusive: 2.82 µM [inhibitor, partial curve]"
same,Potency,[1],"inconclusive: 2.52 µM [inhibitor, full curve]"
same,Potency,[2],"inconclusive: 11.2 µM [inhibitor, single point]"
same,Potency,[9],inactive
same,Potency,[6],inactive
